Assay results published in publication PMC11155029.
Results are given in words; binding and its absence hold for the method and conditions named. In cells and extracts the contact can be indirect. Some binding calls cover weakened binding; strength is not graded here.

Amino acid sequences for entries named in this document (tags omitted).
UniProt P40692: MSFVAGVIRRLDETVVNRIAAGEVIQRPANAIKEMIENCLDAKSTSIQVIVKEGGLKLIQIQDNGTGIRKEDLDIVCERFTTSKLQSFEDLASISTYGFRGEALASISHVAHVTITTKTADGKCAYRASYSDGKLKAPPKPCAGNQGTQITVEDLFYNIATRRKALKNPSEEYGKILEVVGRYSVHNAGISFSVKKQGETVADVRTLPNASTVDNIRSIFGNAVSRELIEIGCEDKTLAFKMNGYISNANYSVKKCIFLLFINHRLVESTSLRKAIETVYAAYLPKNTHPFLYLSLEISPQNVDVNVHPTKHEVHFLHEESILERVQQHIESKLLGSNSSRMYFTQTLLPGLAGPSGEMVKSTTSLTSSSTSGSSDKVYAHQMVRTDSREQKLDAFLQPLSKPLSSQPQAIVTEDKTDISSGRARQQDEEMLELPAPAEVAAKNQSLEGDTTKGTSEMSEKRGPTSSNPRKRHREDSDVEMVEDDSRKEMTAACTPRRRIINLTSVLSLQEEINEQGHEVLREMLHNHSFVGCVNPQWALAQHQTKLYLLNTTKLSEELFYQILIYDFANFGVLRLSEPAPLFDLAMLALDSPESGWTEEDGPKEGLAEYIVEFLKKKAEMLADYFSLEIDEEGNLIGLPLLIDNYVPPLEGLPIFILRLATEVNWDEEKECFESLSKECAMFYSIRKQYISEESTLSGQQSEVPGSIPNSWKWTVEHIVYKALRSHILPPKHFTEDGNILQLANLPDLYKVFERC
UniProt P52701: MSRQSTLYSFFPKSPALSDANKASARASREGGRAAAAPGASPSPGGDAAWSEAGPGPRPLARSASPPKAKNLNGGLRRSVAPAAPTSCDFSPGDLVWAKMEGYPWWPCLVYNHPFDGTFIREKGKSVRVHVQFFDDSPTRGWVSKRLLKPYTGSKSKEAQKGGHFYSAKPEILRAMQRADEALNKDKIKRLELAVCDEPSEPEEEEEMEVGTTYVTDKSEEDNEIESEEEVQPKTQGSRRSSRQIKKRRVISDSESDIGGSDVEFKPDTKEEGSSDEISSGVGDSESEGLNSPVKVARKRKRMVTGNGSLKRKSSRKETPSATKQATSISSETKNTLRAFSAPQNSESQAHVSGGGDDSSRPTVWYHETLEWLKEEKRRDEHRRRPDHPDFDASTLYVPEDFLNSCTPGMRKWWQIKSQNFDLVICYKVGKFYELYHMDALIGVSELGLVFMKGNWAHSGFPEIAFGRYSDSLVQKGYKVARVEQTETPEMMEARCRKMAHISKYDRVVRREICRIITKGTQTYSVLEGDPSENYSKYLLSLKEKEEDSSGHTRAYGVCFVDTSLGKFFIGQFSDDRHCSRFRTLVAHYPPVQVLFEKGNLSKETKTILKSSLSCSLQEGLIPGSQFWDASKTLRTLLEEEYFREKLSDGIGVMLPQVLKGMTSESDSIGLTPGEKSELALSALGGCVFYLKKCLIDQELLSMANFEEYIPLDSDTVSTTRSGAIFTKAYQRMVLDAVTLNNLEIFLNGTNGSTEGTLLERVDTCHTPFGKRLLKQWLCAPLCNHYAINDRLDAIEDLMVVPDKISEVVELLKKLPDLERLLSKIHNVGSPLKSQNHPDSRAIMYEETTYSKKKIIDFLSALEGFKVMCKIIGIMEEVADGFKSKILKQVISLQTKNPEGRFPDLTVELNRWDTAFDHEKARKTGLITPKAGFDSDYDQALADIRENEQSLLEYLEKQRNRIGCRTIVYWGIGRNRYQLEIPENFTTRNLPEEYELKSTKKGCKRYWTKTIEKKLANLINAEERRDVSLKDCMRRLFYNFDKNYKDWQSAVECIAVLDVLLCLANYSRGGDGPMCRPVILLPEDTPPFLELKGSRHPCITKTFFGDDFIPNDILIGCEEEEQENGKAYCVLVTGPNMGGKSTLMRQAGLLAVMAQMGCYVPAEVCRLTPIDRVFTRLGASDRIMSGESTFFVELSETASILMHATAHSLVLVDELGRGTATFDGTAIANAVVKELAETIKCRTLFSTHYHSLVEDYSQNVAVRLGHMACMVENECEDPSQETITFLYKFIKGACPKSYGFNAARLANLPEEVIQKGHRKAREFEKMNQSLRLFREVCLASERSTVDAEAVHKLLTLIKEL
UniProt Q13148: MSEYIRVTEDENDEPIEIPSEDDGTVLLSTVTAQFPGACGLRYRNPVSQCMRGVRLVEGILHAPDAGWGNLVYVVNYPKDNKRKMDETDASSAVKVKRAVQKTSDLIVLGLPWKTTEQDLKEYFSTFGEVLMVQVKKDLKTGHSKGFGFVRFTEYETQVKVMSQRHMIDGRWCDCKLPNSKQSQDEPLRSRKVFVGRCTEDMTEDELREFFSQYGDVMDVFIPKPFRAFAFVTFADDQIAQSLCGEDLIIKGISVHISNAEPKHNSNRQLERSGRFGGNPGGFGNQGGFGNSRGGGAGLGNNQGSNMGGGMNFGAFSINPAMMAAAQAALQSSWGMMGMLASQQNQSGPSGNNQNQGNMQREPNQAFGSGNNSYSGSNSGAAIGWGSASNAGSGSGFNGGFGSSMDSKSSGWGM

Columns and labels:
[1] = target: MLH1 (human (endogenous in SH-SY5Y and human spinal cord tissue)) (UniProt P40692); assay: co-IP; reverse co-IP with anti-MLH1 and anti-MSH6 antibodies from MMS-treated cell cultures; blot for TDP43
[2] = target: MSH6 (human (endogenous in SH-SY5Y and human spinal cord tissue)) (UniProt P52701); assay: as above
[3] = target: MLH1 (human (endogenous in SH-SY5Y and human spinal cord tissue)) (UniProt P40692); assay: co-IP; reverse co-IP with anti-MLH1 and anti-MSH6 antibodies from cell cultures not treated with MMS; blot for TDP43
[4] = target: MSH6 (human (endogenous in SH-SY5Y and human spinal cord tissue)) (UniProt P52701); assay: as above
[5] = target: TAR-DNA binding protein 43 (TDP43) (human (endogenous in SH-SY5Y, HEK293 and human spinal cord tissue)) (UniProt Q13148); assay: proximity ligation; PLA on ventral horn of human lumbar spinal cord tissue, ALS-affected patients and age-matched controls
[6] = target: TAR-DNA binding protein 43 (TDP43) (human (endogenous in SH-SY5Y, HEK293 and human spinal cord tissue)) (UniProt Q13148); assay: co-IP; Pierce Co-IP kit; total lysate of control (not MMS-treated) differentiated SH-SY5Y cells on anti-TDP43 resin, overnight 4 °C; Western blot for MLH1 and MSH6
[7] = target: TAR-DNA binding protein 43 (TDP43) (human (endogenous in SH-SY5Y, HEK293 and human spinal cord tissue)) (UniProt Q13148); assay: co-IP; Pierce Co-IP kit; 1 mg total lysate of MMS-treated differentiated SH-SY5Y cells on resin with covalently linked anti-TDP43 antibody, overnight 4 °C; Western blot for MLH1 and MSH6

binding [1]	binding [2]	binding [5]	binding [7]	Substance	binding [3]	binding [4]	binding [6]
binds	binds	–	–	TAR-DNA binding protein 43 (TDP43) (from UniProt Q13148 1-414)	no binding (condition: cells not treated with MMS)	no binding (condition: cells not treated with MMS)	–
–	–	binds	binds	MSH6 (from UniProt P52701 1-1360)	–	–	no binding (condition: cells not treated with MMS)
